{
  "source": "ChEMBL document CHEMBL4888484",
  "about": "“Replenishing the malaria drug discovery pipeline: Screening and hit evaluation of the MMV Hit Generation Library 1 (HGL1) against asexual blood stage Plasmodium falciparum ,using a nano luciferase reporter read-out” (2022)",
  "note": "Hit rate of the full screen: of about 150,000 compounds, about 540 (0.36%) showed an effect of 50% or more. This is one part of the list.",
  "data": [
    {"system": "Plasmodium falciparum", "assay": "Primary screen in NF54 nanoGlo assay, in single point, at 2uM, 72h; a lower Z score goes with more inhibition", "assay_type": "functional, Erythrocyte", "conditions": "timepoint 72 hour", "units": {"% Inhibition": "%"}, "values": [
      {"smiles": "Cc1ccc(OS(=O)(=O)c2cc3oc(=O)[nH]c3cc2Cl)cc1", "% Inhibition": -4, "Z score": 0.46},
      {"smiles": "NC(=O)[C@]12CCC[C@H]1CN(Cc1ccc(OCC(F)(F)F)nn1)C2", "% Inhibition": 3, "Z score": -0.58},
      {"smiles": "Cc1cnccc1N1CCC[C@H]1c1cccnc1", "% Inhibition": -4, "Z score": 0.66},
      {"smiles": "O=C1NC(=O)C2(Cc3ccccc3N3CCCC32)C(=O)N1c1ccccc1", "note": "(centres undefined)", "% Inhibition": 34, "Z score": -3.9},
      {"smiles": "CN(C)[C@@H](CN)c1ccc(C(F)(F)F)cc1", "% Inhibition": -3, "Z score": 0.42},
      {"smiles": "CCC[C@H](NC(=O)c1cnn(C(C)C)c1C)C(=O)N1CCc2sccc2C1", "% Inhibition": -3, "Z score": 0.47},
      {"smiles": "CC(Cn1cccn1)NC1CCOC1=O", "note": "(centres undefined)", "% Inhibition": -5, "Z score": 0.83},
      {"smiles": "O=C(c1ccc[nH]1)N1C[C@@H]2CC[C@H]1CN(Cc1ccncc1)C2", "% Inhibition": 0, "Z score": -0.04},
      {"smiles": "O=C(c1cc(-c2ccccc2)c(N2CCCCCC2)s1)N1CCC2(CC1)OCCO2", "% Inhibition": -17, "Z score": 1.98},
      {"smiles": "O=C(Cc1ccccc1)N1CC2(C1)CN(C(=O)c1ccccc1)C[C@@H]1C[C@@H](O)CN12", "% Inhibition": -8, "Z score": 1.21},
      {"smiles": "Cc1nnc(CNC(C)C(C)c2ccccc2C(F)(F)F)o1", "note": "(centres undefined)", "% Inhibition": -10, "Z score": 1.18},
      {"smiles": "O=C(c1cn2ccccc2n1)N1C[C@H](c2ccccc2)[C@@H]2[C@H]1C1CCN2CC1", "% Inhibition": 3, "Z score": -0.53},
      {"smiles": "CC(C)n1c(=O)c(-c2ccc(C(=O)N3CCC4(CC3)OCCO4)cc2)nc2cccnc21", "% Inhibition": 0, "Z score": 0.05},
      {"smiles": "O=C(c1ccncc1F)N1C2CCC1c1ccccc12", "% Inhibition": -17, "Z score": 2.12},
      {"smiles": "O=c1oc2cc(Cl)ccc2n1C(c1ccccc1)(c1ccccc1)c1ccccc1", "% Inhibition": 23, "Z score": -2.51},
      {"smiles": "COCCN1C[C@@H]2CC[C@H]1CN(C(=O)c1cc(C(C)C)on1)C2", "% Inhibition": 4, "Z score": -0.35},
      {"smiles": "CCc1nocc1CN1[C@H](C(=O)NC2CC2)C[C@@H]2OCC[C@@H]21", "% Inhibition": 6, "Z score": -0.9},
      {"smiles": "O=C(c1cccc(N2CCCN(Cc3ccccc3)C2=O)c1)N1CCC2(CC1)OCCO2", "% Inhibition": -10, "Z score": 1.48},
      {"smiles": "O=C(CCc1ccccc1)N1C2CCC1c1cncnc1C2", "note": "(centres undefined)", "% Inhibition": -8, "Z score": 1.07},
      {"smiles": "CC[C@H](C)Oc1cccc2c1cc(C(=O)N1CCCC1)n2Cc1ccccc1", "% Inhibition": -22, "Z score": 2.52},
      {"smiles": "CS(=O)(=O)NCCCNc1ccc(C#N)c(Cl)c1", "% Inhibition": -6, "Z score": 0.9},
      {"smiles": "COc1ccc(CCNCc2cnc(N)nc2)cc1OC", "% Inhibition": -4, "Z score": 0.62},
      {"smiles": "Cn1nc(C(=O)N2C[C@@H](c3ccccc3)[C@@H]3[C@H]2C2CCN3CC2)ccc1=O", "% Inhibition": -12, "Z score": 1.35},
      {"smiles": "CCc1ccc(CN2C[C@@H]3CC[C@H]2CN(C)C3)nc1", "% Inhibition": 1, "Z score": -0.19},
      {"smiles": "c1ccc(CCN2C[C@@H]3CC[C@H]2CN(Cc2cccnc2)C3)cc1", "% Inhibition": 16, "Z score": -2.06},
      {"smiles": "C[C@H]1Cc2cc(NC(=O)CN3CCCC3=O)ccc2O1", "% Inhibition": -1, "Z score": 0.16},
      {"smiles": "O=C1NCCCCCCN[C@H]2CCC[C@@H]12", "% Inhibition": 11, "Z score": -1.38},
      {"smiles": "Cc1ccc(C2CC(c3cccnc3)Nc3ncnn32)cc1", "note": "(centres undefined)", "% Inhibition": 42, "Z score": -5.68},
      {"smiles": "COc1ccccc1Cn1cc(C(=O)NCCC(C)C)c(=O)c(C(=O)N(C)CCCN(C)C)c1", "% Inhibition": 3, "Z score": -0.37},
      {"smiles": "Cc1cnn(CC(C)NC2CC(C)OC2=O)c1", "note": "(centres undefined)", "% Inhibition": -4, "Z score": 0.56},
      {"smiles": "Cc1cccnc1C[C@H](C)N(C)CCC(=O)Nc1cccc(C)c1C", "% Inhibition": -1, "Z score": 0.08},
      {"smiles": "COCC(O)CN1CC2CN3CCCCC3C2C1", "note": "(centres undefined)", "% Inhibition": -13, "Z score": 1.18},
      {"smiles": "O=C(Nc1cccc(N2CCCC2=O)c1)Oc1ccccc1", "% Inhibition": -13, "Z score": 1.66},
      {"smiles": "O=C(N[C@H]1COC[C@@H]1N1CCOCC1)c1cccn1C1CC1", "% Inhibition": -10, "Z score": 0.93},
      {"smiles": "Cc1cc(CC(C)NC(C)c2ccnn2C)n[nH]1", "note": "(centres undefined)", "% Inhibition": 2, "Z score": -0.28},
      {"smiles": "C[C@@H](Cc1ccccn1)N(C)CC(=O)N1CCOCC1", "% Inhibition": -2, "Z score": 0.48},
      {"smiles": "c1ccc2c(c1)CCCC[C@@]21CCCNC1", "% Inhibition": -1, "Z score": 0.09},
      {"smiles": "COc1ccc(-c2oc(=O)n(Cc3ccco3)c2-c2ccc(OC)cc2)cc1", "% Inhibition": -3, "Z score": 0.37},
      {"smiles": "C/C=C(\\C)CN1CC[C@@]2(CCCN(Cc3cccnc3)C2=O)C1", "% Inhibition": -11, "Z score": 1.58},
      {"smiles": "CCc1nnc(-c2ccc(OC)c(NC(=O)N[C@H]3CN4CCC3CC4)c2)o1", "% Inhibition": 12, "Z score": -1.12},
      {"smiles": "CC(C)c1nccc(CN2CCC3(CC2)C(=O)N(C)c2ccccc23)n1", "% Inhibition": -5, "Z score": 1.03},
      {"smiles": "Cc1nc(C)c(CC(=O)N2CCN(Cc3nonc3C)CC2)c(=O)[nH]1", "% Inhibition": -9, "Z score": 1.74}
    ]}
  ]
}
